Assay results reported in paper PMC3513311.
No constants are given. Whether binding was seen depends on the method and setting. For some of these results: Binding seen in cells or lysates may run through a third protein. Some entries that bind do so weakly or less than the wild type. Where a sequence is shown, tags or fusion partners need not be part of it. Blank lines part the entries; values can stand above or below the binder they belong to.

Experiments:
[1] = target: T1, N-terminally His-tagged Csy1 (Pectobacterium atrosepticum SCRI1043) (UniProt Q6D0W8); assay: SEC; His-Csy1 and native Csy2 co-purified from the Δcas mutant, size exclusion column; unpublished data
T1 sequence: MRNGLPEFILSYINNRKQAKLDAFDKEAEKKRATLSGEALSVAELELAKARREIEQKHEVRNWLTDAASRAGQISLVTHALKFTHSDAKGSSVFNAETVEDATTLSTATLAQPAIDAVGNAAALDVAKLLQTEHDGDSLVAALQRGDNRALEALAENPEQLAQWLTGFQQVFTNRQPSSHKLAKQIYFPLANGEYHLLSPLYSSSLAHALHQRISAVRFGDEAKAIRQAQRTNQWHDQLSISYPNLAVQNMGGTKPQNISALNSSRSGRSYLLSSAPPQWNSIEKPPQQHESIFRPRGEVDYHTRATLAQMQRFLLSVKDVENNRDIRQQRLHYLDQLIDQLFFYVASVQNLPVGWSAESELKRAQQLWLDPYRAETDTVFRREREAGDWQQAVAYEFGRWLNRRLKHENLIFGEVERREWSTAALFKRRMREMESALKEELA

[2] = target: T1, N-terminally His-tagged Csy1 (Pectobacterium atrosepticum SCRI1043); assay: pull-down; His-Csy1 and native Csy2 co-purified from the Δcas mutant; unpublished data
[3] = target: T2, N-terminally His-tagged Cas1 (Pectobacterium atrosepticum SCRI1043) (UniProt Q6D0X0); assay: SEC; His-Cas1 and Cas3 co-expressed and co-purified on Ni-NTA, dialysed into 20 mM HEPES, 300 mM KCl, 5% glycerol, 1 mM DTT, Superose 12 (10/300) GL; fractions on SDS-PAGE
T2 sequence: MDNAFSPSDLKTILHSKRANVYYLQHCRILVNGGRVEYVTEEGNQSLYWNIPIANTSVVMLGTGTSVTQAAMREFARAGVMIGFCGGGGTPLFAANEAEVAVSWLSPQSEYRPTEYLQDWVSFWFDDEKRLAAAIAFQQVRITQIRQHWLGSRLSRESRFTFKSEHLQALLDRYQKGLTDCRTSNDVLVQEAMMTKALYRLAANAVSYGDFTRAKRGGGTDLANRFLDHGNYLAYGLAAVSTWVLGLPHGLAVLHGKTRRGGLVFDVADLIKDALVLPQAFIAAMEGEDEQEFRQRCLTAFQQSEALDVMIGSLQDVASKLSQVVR

[4] = target: T3, C-terminally FLAG-tagged Cas6f (Pectobacterium atrosepticum SCRI1043), Q6D0W5; assay: co-IP; P. atrosepticum Δcas strain (no cas1, cas3, csy1-3, cas6f operon, no mature crRNAs); N- or C-terminally FLAG-tagged bait and N-terminally His-tagged prey co-expressed; anti-FLAG agarose; Western blot with anti-His; conditions: remark: other sources report otherwise
T3 chain: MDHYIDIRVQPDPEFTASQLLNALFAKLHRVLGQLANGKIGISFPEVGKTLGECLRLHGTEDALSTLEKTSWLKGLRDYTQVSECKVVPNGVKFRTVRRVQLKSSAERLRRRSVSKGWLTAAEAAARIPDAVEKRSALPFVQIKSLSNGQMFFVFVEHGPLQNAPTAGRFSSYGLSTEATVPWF

[5] = target: T4, C-terminally FLAG-tagged Csy1 (Pectobacterium atrosepticum SCRI1043), Q6D0W8; assay: as above; conditions: remark: other sources report otherwise
T4 chain: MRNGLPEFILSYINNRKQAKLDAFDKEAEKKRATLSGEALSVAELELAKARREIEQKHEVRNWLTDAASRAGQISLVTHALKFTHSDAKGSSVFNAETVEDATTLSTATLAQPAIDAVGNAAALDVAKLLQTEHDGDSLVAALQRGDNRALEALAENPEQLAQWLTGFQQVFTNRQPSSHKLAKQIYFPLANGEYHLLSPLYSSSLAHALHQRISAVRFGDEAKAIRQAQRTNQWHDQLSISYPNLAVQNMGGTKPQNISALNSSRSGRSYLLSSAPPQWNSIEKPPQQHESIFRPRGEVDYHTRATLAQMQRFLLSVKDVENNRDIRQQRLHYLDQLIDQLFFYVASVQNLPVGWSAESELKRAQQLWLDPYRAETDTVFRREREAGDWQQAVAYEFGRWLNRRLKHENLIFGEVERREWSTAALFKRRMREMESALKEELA

[6] = target: T5, N-terminally FLAG-tagged Csy1 (Pectobacterium atrosepticum SCRI1043), Q6D0W8; assay: as above; conditions: remark: other sources report otherwise
T5 chain: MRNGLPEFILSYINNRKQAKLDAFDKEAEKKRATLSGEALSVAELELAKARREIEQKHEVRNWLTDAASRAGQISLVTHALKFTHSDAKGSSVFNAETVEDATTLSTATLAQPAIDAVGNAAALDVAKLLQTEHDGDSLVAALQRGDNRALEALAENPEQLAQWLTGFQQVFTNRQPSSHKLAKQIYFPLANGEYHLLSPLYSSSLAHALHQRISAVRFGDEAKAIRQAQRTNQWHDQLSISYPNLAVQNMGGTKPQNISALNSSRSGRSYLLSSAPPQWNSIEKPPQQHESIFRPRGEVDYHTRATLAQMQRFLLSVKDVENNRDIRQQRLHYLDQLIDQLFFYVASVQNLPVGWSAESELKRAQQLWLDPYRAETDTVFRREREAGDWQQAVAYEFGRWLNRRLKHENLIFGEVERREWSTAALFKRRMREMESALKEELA

[7] = target: T3, C-terminally FLAG-tagged Cas6f …; assay: co-IP; P. atrosepticum WT strain (chromosomal Cas/Csy proteins and crRNAs present); N- or C-terminally FLAG-tagged bait and N-terminally His-tagged prey co-expressed; anti-FLAG agarose; Western blot with anti-His; conditions: remark: other sources report otherwise
[8] = target: T4, C-terminally FLAG-tagged Csy1 …; assay: as above; conditions: remark: other sources report otherwise
[9] = target: T5, N-terminally FLAG-tagged Csy1 …; assay: as above; conditions: remark: other sources report otherwise
[10] = target: T6, C-terminally FLAG-tagged Csy3 (Pectobacterium atrosepticum SCRI1043), Q6D0W6; assay: co-IP; P. atrosepticum Δcas strain (no cas1, cas3, csy1-3, cas6f operon, no mature crRNAs); N- or C-terminally FLAG-tagged bait and N-terminally His-tagged prey co-expressed; anti-FLAG agarose; Western blot with anti-His; conditions: remark: other sources report otherwise
T6 chain: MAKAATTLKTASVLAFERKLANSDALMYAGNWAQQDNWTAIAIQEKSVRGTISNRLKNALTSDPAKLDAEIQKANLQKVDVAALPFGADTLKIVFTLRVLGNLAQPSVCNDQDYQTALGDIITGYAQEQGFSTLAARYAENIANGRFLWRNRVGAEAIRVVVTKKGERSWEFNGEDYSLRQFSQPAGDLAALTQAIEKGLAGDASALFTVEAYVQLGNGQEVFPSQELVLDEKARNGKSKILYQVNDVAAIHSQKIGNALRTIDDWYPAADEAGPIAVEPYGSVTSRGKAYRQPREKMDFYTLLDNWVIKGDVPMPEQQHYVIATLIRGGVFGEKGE

[11] = target: T7, N-terminally FLAG-tagged Csy3 (Pectobacterium atrosepticum SCRI1043), Q6D0W6; assay: as above; conditions: remark: other sources report otherwise
T7 chain: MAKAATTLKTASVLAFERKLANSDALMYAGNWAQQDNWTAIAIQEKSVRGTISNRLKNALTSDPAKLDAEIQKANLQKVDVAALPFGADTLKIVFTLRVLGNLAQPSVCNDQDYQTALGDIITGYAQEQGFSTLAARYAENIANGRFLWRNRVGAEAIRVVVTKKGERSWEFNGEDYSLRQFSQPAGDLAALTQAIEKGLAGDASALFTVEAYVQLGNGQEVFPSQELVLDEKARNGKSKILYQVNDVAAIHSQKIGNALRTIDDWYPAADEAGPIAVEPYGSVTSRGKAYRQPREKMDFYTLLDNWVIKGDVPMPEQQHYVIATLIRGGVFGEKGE

[12] = target: T6, C-terminally FLAG-tagged Csy3 …; assay: co-IP; P. atrosepticum WT strain (chromosomal Cas/Csy proteins and crRNAs present); N- or C-terminally FLAG-tagged bait and N-terminally His-tagged prey co-expressed; anti-FLAG agarose; Western blot with anti-His; conditions: remark: other sources report otherwise
[13] = target: T7, N-terminally FLAG-tagged Csy3 …; assay: as above; conditions: remark: other sources report otherwise

B3: N-terminally His-tagged Csy3, Q6D0W6 1-337 (protein)
chain: MAKAATTLKTASVLAFERKLANSDALMYAGNWAQQDNWTAIAIQEKSVRGTISNRLKNALTSDPAKLDAEIQKANLQKVDVAALPFGADTLKIVFTLRVLGNLAQPSVCNDQDYQTALGDIITGYAQEQGFSTLAARYAENIANGRFLWRNRVGAEAIRVVVTKKGERSWEFNGEDYSLRQFSQPAGDLAALTQAIEKGLAGDASALFTVEAYVQLGNGQEVFPSQELVLDEKARNGKSKILYQVNDVAAIHSQKIGNALRTIDDWYPAADEAGPIAVEPYGSVTSRGKAYRQPREKMDFYTLLDNWVIKGDVPMPEQQHYVIATLIRGGVFGEKGE
binding [4]: no binding
binding [5]: no binding
binding [6]: no binding
binding [7]: no binding
binding [8]: no binding
binding [9]: no binding

B4: N-terminally His-tagged Cas6f, Q6D0W5 1-184 (enzyme)
chain: MDHYIDIRVQPDPEFTASQLLNALFAKLHRVLGQLANGKIGISFPEVGKTLGECLRLHGTEDALSTLEKTSWLKGLRDYTQVSECKVVPNGVKFRTVRRVQLKSSAERLRRRSVSKGWLTAAEAAARIPDAVEKRSALPFVQIKSLSNGQMFFVFVEHGPLQNAPTAGRFSSYGLSTEATVPWF
binding [10]: no binding
binding [11]: no binding
binding [12]: no binding
binding [13]: no binding

Second part, the binder after the results:

binding [1]: binds
binding [2]: binds
B1: native (untagged) Csy2 (protein, UniProt Q6D0W7 1-310)
chain: MSTLIILRRIQVENANAIAGLTYGFPAITHFLGFTHALSRKLQASHGLTLEGCGVVSHQHQLHAYGSSWERSFALTRNPLTKEAKTAAFNEEGRMHMTVSLLIRCDGQIPADTTALCEHLKQQAQCQRLAGGTVIDIERVTVQSLPVDEAETRGVMRRLLPGFVLRDRTSLLHRHFQTLQQAKPQAEMIDAWLDFAALKMQAERDPSDETVQWKYLPKPGDGGFLTPLMIGYRAISPLYAPGEVDKTRDPHTPFCFAEAAYGIGEWQGAHRISDISQILWEYDYQNGDYHCRQVADTHSVAEDTSYEFDY

binding [3]: binds
B2: native (untagged) Cas3 (enzyme, UniProt Q6D0W9 1-1098)
chain: MNILLISECNKRALVETRRILDQFAERKGERSWQTAITLEGLNTLRKLLRKTARRNTAVACHWIRSTNHTELLWVVGNLRRFNAQGSVPTNTTSRDVLRTKDENPWHSAEVFSLLAAIAGLFHDVGKANALFQAGLSGTGPRSQPYRHEWVSLRLFQAFVGEQDDKAWLTTLSMITSEAEVALLATLQQDKPTFSDSPFRTLPPLAQTIAWLIVSHHRLPVFNKSTELAPNSSEPQLSFAETWLTDHLSPQWNALNHCQIGWTPHEREQNWQFPNGTPLYSAVWREKARKFAGRALKLPSFMHFSQLDQRLTVHLARLALMLADHHYSAGAATVGWQDITYPVWANTDRKTGEYKQRLDEHCVGVGQNALLLGRSLPHLRDTLPAITRHKGFRQRSTHPRFRWQDRAFDLACSIRETSKQHGFFGINMASTGRGKTFANARIMYGLSDESTGCRFSVALGLRTLTLQTGDALRQRLKLDEDDLAVLIGSQAVQDLHEMRKENQQRQQNTPQTGSESADPLFSEHQYVRYDGSLDDGRLKAWLERSPTLHQLLSAPVLITTIDHLMPATEALRGGHQIAPMLRLLTADLVLDEPDDFGLEDLPALCRLVNWAGMLGSRVLLSSATLPPALIRALFDAYLDGRTAWQQAYGTPNTPLNVCCGWFDEFDCQHEQYGDVKDFMVRHDAFVHQRLKNLTKDELPLRFATIVPVSSPSKNADDVYLAVAQAIHPRMFDLHSQHHQQHENGKTVSLGLVRMANIDPLVAVARQLLAIPSPPDTCIHYCIYHSQHPLAMRSHIEQRLDAALMRNDADALWQVEEIRQAIEKSSQRHHVFVALATSVAEVGRDHDYDWAIVEPSSMRSLIQPAGRILRHRQDKQYVPKTPNIYLLSHNIRALRGKDIAYCKPGFESQDDSLDTHDLHQLLQEKEYRHLSAAPRIVQPMSFAKPLSLVALEHAVLGKTLLGLKNKKLDDLKRPPAAFWWRAHPHWNGELQRRTPFRQSAKDEAYTLWIADDDEEPVFMVQDDGPSGWKQSDIARPVTLNMAEGVSAWIEPDYHALYQQLAEEKQWELSWVSARFGEIRLREEEDWYWHPLLGVFGALS
